From article PMC6114900

Biological target: T1, CesT (purified alone) (enteropathogenic Escherichia coli (EPEC)), P21244
T1 chain: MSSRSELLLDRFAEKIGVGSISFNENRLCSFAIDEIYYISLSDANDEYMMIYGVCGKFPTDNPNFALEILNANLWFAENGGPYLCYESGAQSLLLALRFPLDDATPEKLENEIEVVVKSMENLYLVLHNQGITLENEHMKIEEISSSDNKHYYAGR
Experiment: SEC
Conditions: remark: other sources report otherwise

B1: CesT (purified alone), P21244 1-156 (natural protein)
chain: MSSRSELLLDRFAEKIGVGSISFNENRLCSFAIDEIYYISLSDANDEYMMIYGVCGKFPTDNPNFALEILNANLWFAENGGPYLCYESGAQSLLLALRFPLDDATPEKLENEIEVVVKSMENLYLVLHNQGITLENEHMKIEEISSSDNKHYYAGR
For B1, the stoichiometry N was 2.
